# The other results are listed elsewhere or left out. Sequences were assembled here from the parent chain. Values near 0.05 are background.
# B1: TEV protease; numbered along this chain (parent)
# chain: MGESLFKGPRDYNPISSSICHLTNESDGHTTSLYGIGFGPFIITNKHLFRRNNGTLVVQSLHGVFKVKDTTTLQQHLVDGRDMIIIRMPKDFPPFPQKLKFREPQREERICLVTTNFQTKSMSSMVSDTSCTFPSGDGIFWKHWIQTKDGQCGSPLVSTRDGFIVGIHSASNFTNTNNYFTSVPKNFMELLTNQEAQQWVSGWRLNADSVLWGGHKVFMVKPEEPFQPVKEATQL
# Variants of: B1
# Assay: raw area under fraction-flipped curve 0-4 h after induction (AUC4h, not background-subtracted), DNA-recorder readout of cleavage of the substrate (dimensionless); higher = more cleavage of the substrate by the protease variant
# Conditions: temperature: 34 °C; time window: 0-4 h after rhamnose induction
# 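Also: Bxb1 expression induced with 0.2% (w/v) L-rhamnose at OD600 near 0.5, cultures sampled hourly, flipped fraction per protease–substrate barcode pair counted by paired-end Illumina sequencing.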
variant,measurement,value
MGESLFKGPRDYNPISSSICHLTNESDGHTTSLYGIGFGPFIITNKHLFRRNNGTLVVQSLHGVFKVKDTTTLQQHLVDGRDMIIIRMPKDFPPFPQKLKFREPQREERICLVTTNFQTKSMSSMVSDTSCTFPSGDGIFWKHWIQTKDGQCGSPLVSTRDGFIVGIHSASNFTNTNNYFTSVPKNFMELLTNQEAQQWVSGWRLNADSVLWGGHKVFMMKPEEPFQPVKEATQL [V220M],area with substrate EALYFQS,0.12
same,area with substrate ECLYFQS,0.0918
same,area with substrate EDLYFQS,0.162
same,area with substrate EFLYFQS,0.12
same,area with substrate EGLYFQS,0.0672
same,area with substrate EILYFQS,0.113
same,area with substrate EKLYFQS,0.0955
same,area with substrate ELLYFQS,0.0938
same,area with substrate EMLYFQS,0.111
same,area with substrate EPLYFQS,0.11
same,area with substrate EQLYFQS,0.0972
same,area with substrate ESLYFQS,0.108
same,area with substrate EVLYFQS,0.104
same,area with substrate EWLYFQS,0.0773
same,area with substrate EYLYFQS,0.126
MGESLFKGPRDYNPISSSICHLTNESDGHTTSLYGIGFGPFIITNKHLFRRNNGTLVVQSLHGVFKVKDTTTLQQHLVDGRDMIIIRMPKDFPPFPQKLKFREPQREERICLVYTNFQTKSMSSMVSDTSCTFPSGDGIFWKHWIQTKDGQCGSPLVSTRDGFIVGIHSASNFTNTNNYFTSVPKNFMELLTNQEAQQWVSGWRLNADSVLWGGHKVFMVKPEEPFQPVKEATQL [T114Y],area with substrate EALYFQS,0.114
same,area with substrate ECLYFQS,0.0946
same,area with substrate EDLYFQS,0.122
same,area with substrate EFLYFQS,0.136
same,area with substrate EHLYFQS,0.0935
same,area with substrate EILYFQS,0.0852
same,area with substrate EPLYFQS,0.0983
same,area with substrate EQLYFQS,0.117
same,area with substrate ESLYFQS,0.0962
same,area with substrate ETLYFQS,0.109
same,area with substrate EVLYFQS,0.101
same,area with substrate EYLYFQS,0.0867
MGESLFKGPRDYNPISSSICHLTNESDGHTTSLYGIGFGPFIITNKHLFRRNNGTLVVQSLHGVFKVKDTTTLQQHLVDGRDMIIIRMSKDFPPFPQKLKFREPQREERICLVTTNFQTKSMSSMVSDTSCTFPSGDGIFWKHWIQTKDGQCGSPLVSTRDGFIVGIHSASNFTNTNNYFTSVPKNFMELLTNQEAQQWVSGWRLNADSVLWGGHKVFMVKPEEPFQPVKEATQL [P89S],area with substrate EALYFQS,0.11
same,area with substrate ECLYFQS,0.0773
same,area with substrate EDLYFQS,0.0856
same,area with substrate EELYFQS,0.0992
same,area with substrate EFLYFQS,0.0869
same,area with substrate EGLYFQS,0.0653
same,area with substrate EILYFQS,0.0883
same,area with substrate ELLYFQS,0.0739
same,area with substrate EMLYFQS,0.0853
same,area with substrate EQLYFQS,0.0908
same,area with substrate ERLYFQS,0.0938
same,area with substrate ESLYFQS,0.0769
same,area with substrate EVLYFQS,0.0783
same,area with substrate EYLYFQS,0.0875
MGESLFKGPRDYNPISSSICHLTNESDGHTTSLYGIGFGPFIITNKHLFRRNNGTLVVQSLHGVFKVKDTTTLQQHLVDGRDMIIIRMPKDFPPFPQLLKFREPQREERICLVTTNFQTKSMSSMVSDTSCTFPSGDGIFWKHWIQTKDGQCGSPLVSTRDGFIVGIHSASNFTNTNNYFTSVPKNFMELLTNQEAQQWVSGWRLNADSVLWGGHKVFMVKPEEPFQPVKEATQL [K98L],area with substrate EALYFQS,0.0783
same,area with substrate ECLYFQS,0.104
same,area with substrate EDLYFQS,0.125
same,area with substrate EFLYFQS,0.0916
same,area with substrate EGLYFQS,0.119
same,area with substrate EILYFQS,0.0932
same,area with substrate EKLYFQS,0.102
same,area with substrate ELLYFQS,0.123
same,area with substrate EMLYFQS,0.154
same,area with substrate EQLYFQS,0.134
same,area with substrate ERLYFQS,0.0831
same,area with substrate ESLYFQS,0.0951
same,area with substrate EVLYFQS,0.105
MGESLFKGPRDYNPISSSICHLTNESDGHTTSLYGIGFGPFIITNKHLFRRNNGTLVVQSLHGVFKVKDTTTLQQHLVDGRDMIIIRMPKDFPPFPQKLKFREPQREERICLVTTNFQTKSMSSMVSDTSCTFPSGDGIFWKHWIQTKDGQCGSPLVSTRDGFIVGIHSASNFTNTNNYFTSVPKNFMELLMNQEAQQWVSGWRLNADSVLWGGHKVFMVKPEEPFQPVKEATQL [T192M],area with substrate EALYFQS,0.145
same,area with substrate ECLYFQS,0.107
same,area with substrate EDLYFQS,0.105
same,area with substrate EELYFQS,0.0921
same,area with substrate EFLYFQS,0.0697
same,area with substrate EHLYFQS,0.105
same,area with substrate EILYFQS,0.111
same,area with substrate EKLYFQS,0.15
same,area with substrate EMLYFQS,0.0792
same,area with substrate EQLYFQS,0.0806
same,area with substrate ERLYFQS,0.0957
same,area with substrate ESLYFQS,0.094
same,area with substrate ETLYFQS,0.115
same,area with substrate EVLYFQS,0.103
same,area with substrate EWLYFQS,0.102
same,area with substrate EYLYFQS,0.116
MGESLFKGPRDYNPISSSICHLTNESDGHTTSLYGIGFGPFIITNKHLFRRNNGTLVVQSLHGVFKVKDTTTLQQHLVDGRDMIIIRMPKDCPPFPQKLKFREPQREERICLVTTNFQTKSMSSMVSDTSCTFPSGDGIFWKHWIQTKDGQCGSPLVSTRDGFIVGIHSASNFTNTNNYFTSVPKNFMELLTNQEAQQWVSGWRLNADSVLWGGHKVFMVKPEEPFQPVKEATQL [F92C],area with substrate EALYFQS,0.108
same,area with substrate ECLYFQS,0.0833
same,area with substrate EDLYFQS,0.125
same,area with substrate EELYFQS,0.101
same,area with substrate EGLYFQS,0.105
same,area with substrate EILYFQS,0.0963
same,area with substrate EMLYFQS,0.127
same,area with substrate EPLYFQS,0.0977
same,area with substrate EQLYFQS,0.113
same,area with substrate ERLYFQS,0.0842
same,area with substrate ESLYFQS,0.11
same,area with substrate EVLYFQS,0.0906
same,area with substrate EWLYFQS,0.0926
MGESLFKGPRDYNPISSSICHLTNESDGHTTSLYGIGFGPFIITNKHLFRRNNGTLVVQSLHGVFKVKDTTTLQQHLVDGRDMIIIRMPKDFPPFPQKLKFREPQREERDCLVTTNFQTKSMSSMVSDTSCTFPSGDGIFWKHWIQTKDGQCGSPLVSTRDGFIVGIHSASNFTNTNNYFTSVPKNFMELLTNQEAQQWVSGWRLNADSVLWGGHKVFMVKPEEPFQPVKEATQL [I110D],area with substrate EALYFQS,0.0501
same,area with substrate ECLYFQS,0.0473
same,area with substrate EDLYFQS,0.0484
same,area with substrate EELYFQS,0.0253
same,area with substrate EFLYFQS,0.0497
same,area with substrate EGLYFQS,0.0505
same,area with substrate EILYFQS,0.0528
same,area with substrate EKLYFQS,0.0557
same,area with substrate ELLYFQS,0.0583
same,area with substrate EQLYFQS,0.0609
same,area with substrate ERLYFQS,0.0587
same,area with substrate ESLYFQS,0.0411
same,area with substrate ETLYFQS,0.0522
same,area with substrate EVLYFQS,0.0082
same,area with substrate EWLYFQS,0.0749
MGESLFKGPRDYNPISSSICHLTNESDGHTTSLYGIGFGPFIITNKHLFRRNNGTLVVQSLHGVFKVKDTTTLQQHLVDGRDMIIIRMPWDFPPFPQKLKFREPQREERICLVTTNFQTKSMSSMVSDTSCTFPSGDGIFWKHWIQTKDGQCGSPLVSTRDGFIVGIHSASNFTNTNNYFTSVPKNFMELLTNQEAQQWVSGWRLNADSVLWGGHKVFMVKPEEPFQPVKEATQL [K90W],area with substrate EALYFQS,0.129
same,area with substrate ECLYFQS,0.105
same,area with substrate EDLYFQS,0.0989
same,area with substrate EELYFQS,0.112
same,area with substrate EGLYFQS,0.0818
same,area with substrate EHLYFQS,0.0979
same,area with substrate EILYFQS,0.0776
same,area with substrate EKLYFQS,0.0806
same,area with substrate ELLYFQS,0.0831
same,area with substrate EMLYFQS,0.0779
same,area with substrate EPLYFQS,0.137
same,area with substrate EQLYFQS,0.12
same,area with substrate ESLYFQS,0.114
same,area with substrate EVLYFQS,0.0908
